The record followed here is PMC5943604.

Protein sequences, listed by entry. Tags and fused reporters are not part of them.
UniProt P40763: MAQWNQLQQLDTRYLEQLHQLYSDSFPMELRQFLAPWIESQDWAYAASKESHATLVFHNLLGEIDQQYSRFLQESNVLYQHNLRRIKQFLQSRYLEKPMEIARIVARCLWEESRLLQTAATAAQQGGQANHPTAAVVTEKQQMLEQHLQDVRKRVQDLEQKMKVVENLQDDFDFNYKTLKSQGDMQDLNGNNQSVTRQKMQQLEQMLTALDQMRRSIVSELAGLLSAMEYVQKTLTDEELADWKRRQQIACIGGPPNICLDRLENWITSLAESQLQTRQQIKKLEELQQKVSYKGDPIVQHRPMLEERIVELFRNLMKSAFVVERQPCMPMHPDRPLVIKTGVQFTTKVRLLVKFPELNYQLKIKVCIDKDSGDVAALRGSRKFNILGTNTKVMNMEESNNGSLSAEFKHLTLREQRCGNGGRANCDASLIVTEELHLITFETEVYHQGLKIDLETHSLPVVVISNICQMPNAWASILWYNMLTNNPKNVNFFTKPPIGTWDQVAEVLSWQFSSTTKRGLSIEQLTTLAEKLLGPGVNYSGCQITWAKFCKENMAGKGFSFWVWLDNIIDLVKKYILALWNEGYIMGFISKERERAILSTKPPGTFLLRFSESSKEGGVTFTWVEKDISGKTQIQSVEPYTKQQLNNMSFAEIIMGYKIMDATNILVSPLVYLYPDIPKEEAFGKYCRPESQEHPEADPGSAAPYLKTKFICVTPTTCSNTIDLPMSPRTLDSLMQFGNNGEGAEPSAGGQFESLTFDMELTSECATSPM

Like-named read-outs stand apart in the source and are kept apart here. Results are given in words; binding and its absence hold for the method and conditions named. Binding seen in cells or lysates may run through a third protein. Some binding calls cover weakened binding; strength is not graded here. For some assays here: Where a sequence is shown, tags or fusion partners need not be part of it.

Common to all, as to experiment: co-IP; lysates of HEK293 cells expressing tagged OCIAD2 or Asrij constructs, incubated 4 hours with Protein G sepharose beads coated with antibodies, washed, Western blot for the endogenous partner
Test [1] concerns the target T1, OCIAD2_FL-EGFP (UniProt Q9D8W7).
T1 sequence: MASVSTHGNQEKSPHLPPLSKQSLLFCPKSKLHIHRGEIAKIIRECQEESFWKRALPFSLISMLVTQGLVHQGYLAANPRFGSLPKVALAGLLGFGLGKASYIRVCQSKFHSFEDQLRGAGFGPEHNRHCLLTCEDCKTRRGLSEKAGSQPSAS

Test [2] concerns the target T2, OCIAD2_N-EGFP (UniProt Q9D8W7).
T2 sequence: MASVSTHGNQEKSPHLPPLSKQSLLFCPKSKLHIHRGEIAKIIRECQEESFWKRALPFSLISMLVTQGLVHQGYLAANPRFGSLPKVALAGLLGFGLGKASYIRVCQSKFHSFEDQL

The target in test [3] is T3, OCIAD2_Hph-dsRED (UniProt Q9D8W7).
T3 sequence: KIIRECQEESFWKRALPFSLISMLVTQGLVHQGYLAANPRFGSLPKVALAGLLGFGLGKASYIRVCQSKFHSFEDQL

For test [4], the target named is T4, OCIAD2_C-dsRed (UniProt Q9D8W7).
T4 sequence: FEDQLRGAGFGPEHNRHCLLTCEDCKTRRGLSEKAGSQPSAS

For test [5], the target named is T1, OCIAD2_FL-EGFP. This is another data set of the same source.
For test [6], the target named is T2, OCIAD2_N-EGFP. This is another data set of the same source.
Test [7] concerns the target T3, OCIAD2_Hph-dsRED. This is another data set of the same source.
Test [8] addresses T4, OCIAD2_C-dsRed. This is another data set of the same source.

STAT3 (from UniProt P40763 1-770): the binding entry in the test with OCIAD2_FL-EGFP [1] is given as “binds”; with OCIAD2_N-EGFP [2], “binds”; in the test with OCIAD2_Hph-dsRED [3] it was “binds”; in the test with OCIAD2_C-dsRed [4] it was “no binding”.

B1: endogenous OCIAD1 (protein, UniProt Q9NX40 1-245)
chain: MNGRADFREPNAEVPRPIPHIGPDYIPTEEERRVFAECNDESFWFRSVPLAATSMLITQGLISKGILSSHPKYGSIPKLILACIMGYFAGKLSYVKTCQEKFKKLENSPLGEALRSGQARRSSPPGHYYQKSKYDSSVSGQSSFVTSPAADNIEMLPHYEPIPFSSSMNESAPTGITDHIVQGPDPNLEESPKRKNITYEELRNKNRESYEVSLTQKTDPSVRPMHERVPKKEVKVNKYGDTWDE
On to B1, for which the binding entry was “binds” with OCIAD2_FL-EGFP [5], “binds” in the test with OCIAD2_N-EGFP [6], “binds” with OCIAD2_Hph-dsRED [7] and “no binding” with OCIAD2_C-dsRed [8].
